The list shows a part of the results.
Tests used:
[1] = tested on: HSkMC (human skeletal muscle cells); assay: cytotoxicity call (relative viability < 0.9); details: 10 µM
[2] = tested on: HepG2; assay: cytotoxicity call (relative viability < 0.9); details: 10 µM
[3] = tested on: S. aureus RN4220; assay: growth inhibition call (relative growth <= 0.2); details: 50 µM

Row | SMILES | cytotoxicity call [1] | cytotoxicity call [2] | growth inhibition call [3]
1 | C[C@H]1CN([C@@H](C)CO)C(=O)c2cccc(NS(C)(=O)=O)c2O[C@H]1CN(C)Cc1ccc(C(=O)Nc2ccccc2N)cc1 | inactive | inactive | inactive
2 | Cc1noc(C)c1S(=O)(=O)Nc1ccc2c(c1)C(=O)N([C@H](C)CO)C[C@H](C)[C@@H](CN(C)CC1CCCCC1)OCCCC[C@@H](C)O2 | inactive | inactive | inactive
3 | C[C@@H]1CCCCO[C@@H](CN(C)C(=O)Nc2ccc(F)cc2)[C@@H](C)CN([C@H](C)CO)C(=O)c2cc(NC(=O)Nc3ccc4c(c3)OCO4)ccc2O1 | inactive | inactive | inactive
4 | CCCC(=O)Nc1ccc2c(c1)C(=O)N(C)C[C@H](OC)[C@@H](C)CN(S(=O)(=O)c1cn(C)cn1)[C@H](C)CO2 | inactive | inactive | inactive
5 | C[C@@H]1CCCCO[C@@H](CN(C)Cc2ccc(C(=O)O)cc2)[C@H](C)CN([C@H](C)CO)C(=O)c2cc(NC(=O)Nc3ccc(F)cc3)ccc2O1 | inactive | inactive | inactive
6 | C[C@@H]1CN([C@H](C)CO)C(=O)Cc2cc(NC(=O)Nc3ccc(C(F)(F)F)cc3)ccc2O[C@@H]1CN(C)Cc1ccncc1 | inactive | active | inactive
7 | COc1ccc(S(=O)(=O)Nc2cccc3c2O[C@@H](CN(C)S(=O)(=O)c2cccs2)[C@@H](C)CN([C@H](C)CO)C3=O)cc1 | inactive | inactive | inactive
8 | COc1ccc(S(=O)(=O)Nc2ccc3c(c2)CC(=O)N([C@@H](C)CO)C[C@H](C)[C@@H](CN(C)S(=O)(=O)c2cccs2)O3)cc1 | inactive | inactive | inactive
9 | C[C@@H]1CCCCO[C@@H](CN(C)C(=O)Nc2ccc(C(F)(F)F)cc2)[C@H](C)CN([C@@H](C)CO)C(=O)c2cc(NS(=O)(=O)c3ccc(F)cc3)ccc2O1 | inactive | active | inactive
10 | COc1ccc(NC(=O)Nc2ccc3c(c2)C(=O)N([C@H](C)CO)C[C@H](C)[C@H](CN(C)S(=O)(=O)c2ccc(Cl)cc2)OCCCC[C@H](C)O3)cc1 | inactive | inactive | inactive
11 | C[C@@H]1CCCCO[C@@H](CN(C)C(=O)CCC(F)(F)F)[C@@H](C)CN([C@H](C)CO)C(=O)c2cc(NC(=O)CCC(F)(F)F)ccc2O1 | inactive | inactive | inactive
12 | C[C@H](CO)N1C[C@H](C)[C@H](CN(C)C(=O)Nc2ccc3c(c2)OCO3)Oc2ccc(N(C)C)cc2CC1=O | inactive | inactive | inactive
13 | C[C@@H]1CN([C@@H](C)CO)C(=O)c2cc(NS(=O)(=O)c3ccc(F)cc3)ccc2O[C@@H](C)CCCCO[C@H]1CN(C)C(=O)Nc1ccccc1 | inactive | inactive | inactive
14 | CC(C)NC(=O)Nc1ccc2c(c1)C(=O)N([C@@H](C)CO)C[C@@H](C)[C@H](CN(C)Cc1ccc(-c3ccccc3)cc1)O2 | inactive | inactive | inactive
15 | C[C@@H]1CN([C@H](C)CO)C(=O)c2cc(NC(=O)Cc3ccccc3)ccc2O[C@H]1CN(C)Cc1ccc(C(F)(F)F)cc1 | inactive | inactive | inactive
16 | C[C@@H]1CN([C@@H](C)CO)S(=O)(=O)c2ccc(C#Cc3ccccn3)cc2O[C@H]1CN(C)Cc1ccccc1 | inactive | inactive | inactive
17 | COC(=O)NN=Cc1c[n+]([O-])c2ccccc2[n+]1[O-] | inactive | inactive | inactive
18 | COc1ccc(/C=C/C(=O)C=C(O)/C=C/c2ccc(OC)c(OC)c2)cc1OC | inactive | inactive | inactive
19 | C[C@@H]1CCCCO[C@H](CN(C)C(=O)Nc2cccc3ccccc23)[C@@H](C)CN([C@H](C)CO)C(=O)c2cc(NS(=O)(=O)c3cccs3)ccc2O1 | inactive | inactive | inactive
20 | CN1C(=O)c2cc(NC(=O)c3cnccn3)ccc2OC[C@H]2O[C@@H](CC(=O)N[C@H]3CCN(Cc4ccccc4)C3)CC[C@H]21 | inactive | inactive | inactive
21 | C[C@@H]1CN([C@H](C)CO)C(=O)c2cc(NC(=O)CCC(F)(F)F)ccc2O[C@@H](C)CCCCO[C@@H]1CN(C)S(=O)(=O)c1cccs1 | inactive | inactive | inactive
22 | CC(C)NC(=O)N(C)C[C@H]1Oc2ccc(NS(=O)(=O)c3cccs3)cc2C(=O)N([C@H](C)CO)C[C@H]1C | inactive | inactive | inactive
23 | C[C@H](CO)N1C[C@H](C)[C@@H](CN(C)C(=O)Nc2ccccc2)OCCCC[C@H](C)Oc2ccc(NC(=O)c3ccncc3)cc2C1=O | inactive | inactive | inactive
